± gives the standard deviation of the averaged measurements. In all, about 33,000 sequences were measured (“E-score (dimensionless, -0.5 to 0.5)”: median about -0.049, highest 2% from about 0.37 on). Some of the results follow.
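Further: 200 nM protein in PBS on universal arrays averaged over duplicate arrays.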

In this assay the test system is T1, PmTbr T-box DNA-binding domain (GST fusion).
T1 sequence: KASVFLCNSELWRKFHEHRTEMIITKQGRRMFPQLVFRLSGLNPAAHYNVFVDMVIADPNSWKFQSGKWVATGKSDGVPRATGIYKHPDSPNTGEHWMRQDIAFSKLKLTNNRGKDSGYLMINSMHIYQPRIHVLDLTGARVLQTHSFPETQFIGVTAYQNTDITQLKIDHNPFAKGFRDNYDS
The experiment in a line: PBM E-score of 8-mer (E-score (dimensionless, -0.5 to 0.5)); Tbr is Tbrain of the sea star Patiria miniata (Pm) or the sea urchin Strongylocentrotus purpuratus (Sp); higher = stronger binding preference; most listed sequences are background and not binding sites. Particulars: the construct has about 5 more residues each side. Here is the method:
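Universal protein-binding microarray (Agilent AMADID 016060, 60-bp probes with a 35-bp variable region) incubated with 200 nM GST-fused Patiria miniata Tbr T-box DNA-binding domain (residues 272-466) in PBS pH 7.5. Scored for every ungapped 8-mer (given with its reverse complement) by the Universal PBM Analysis Suite as E-score (modified Wilcoxon-Mann-Whitney enrichment, range -0.5 to 0.5; >0.45 counts as bound) and Z-score of median probe intensity. Two replicate arrays (datasets 1 and 2).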
In the case of ATCCCTTA, the “PBM E-score of 8-mer” value is -0.173 ± 0.026. Turning to TCTTCAAA, the “PBM E-score of 8-mer” value was -0.113 ± 0.02. Turning to GCCTACCA, the “PBM E-score of 8-mer” value was 0.015 ± 0.093. Take ATAATGAG: the “PBM E-score of 8-mer” value is -0.171 ± 0.043. As to CACACCTG, the “PBM E-score of 8-mer” value turned out to be 0.478 ± 0.0049. For the sequence AGGCACGG, the “PBM E-score of 8-mer” value was -0.0977 ± 0.04. Under CTCAGTTC stands -0.00404 ± 0.012; under AAACTGAT, -0.0131 ± 0.079.

On to AAGTCTTA, for which the “PBM E-score of 8-mer” value is -0.119 ± 0.083. Under GTAACAAC stands 0.1282 ± 0.00081; under GGCGTGCA, -0.00275 ± 0.035. Next, GCTAACAA: 0.252 ± 0.013. Take CTAACAAA: the “PBM E-score of 8-mer” value came out at 0.214 ± 0.0057. Under TACACACA stands 0.0579 ± 0.077; under GTGCATGA, -0.224 ± 0.014. For the sequence ACCATAGA, the “PBM E-score of 8-mer” value is -0.1005 ± 0.00049. Next, CGTCGATC: -0.0623 ± 0.076. CTCATCGC: the “PBM E-score of 8-mer” value was determined as 0.0527 ± 0.011. Regarding AACCAGTA, the “PBM E-score of 8-mer” value is -0.0469 ± 0.021. Under CCTGTGCG stands 0.0331 ± 0.0047; under CAACTTAA, 0.0896 ± 0.057. As for CGATGTTA, the “PBM E-score of 8-mer” value was -0.192 ± 0.016. For AGTAGAAA, the “PBM E-score of 8-mer” value is -0.127 ± 0.0088. For the sequence CACTTACC, the “PBM E-score of 8-mer” value was 0.284 ± 0.022.

On to GAAGTAAC, for which the “PBM E-score of 8-mer” value was -0.0366 ± 0.017.

As for CGGGGAAA, the “PBM E-score of 8-mer” value is -0.182 ± 0.035.

Take TGCCATAA: the “PBM E-score of 8-mer” value was found to be 0.0817 ± 0.098. Consider GTGCAACA, for which the “PBM E-score of 8-mer” value was determined as 0.256 ± 0.011. With TACCCTAA, the “PBM E-score of 8-mer” value was -0.0671 ± 0.0095. Consider GTGTGATA, for which the “PBM E-score of 8-mer” value came to 0.46 ± 0.006. Under AGGTTTAT stands -0.119 ± 0.0081; under AGGGTACC, -0.0114 ± 0.0027; under GCGACATA, 0.188 ± 0.0051. As to AAGATGGC, the “PBM E-score of 8-mer” value is 0.0593 ± 0.083. As to AATTCACC, the “PBM E-score of 8-mer” value is -0.049 ± 0.069. As for GATATCCC, the “PBM E-score of 8-mer” value was -0.147 ± 0.05. Turning to ACGGATCC, the “PBM E-score of 8-mer” value is -0.173 ± 0.0043.

As for CAATGTGC, the “PBM E-score of 8-mer” value turned out to be 0.234 ± 0.021.

As for GATATGCA, the “PBM E-score of 8-mer” value turned out to be 0.0467 ± 0.019. For ATGATCGA, the “PBM E-score of 8-mer” value is -0.138 ± 0.035. On to GTCTGGAA, for which the “PBM E-score of 8-mer” value is -0.179 ± 0.069.

Turning to GACGTTAC, the “PBM E-score of 8-mer” value is -0.12 ± 0.043.

As for AAGGAGCG, the “PBM E-score of 8-mer” value was -0.147 ± 0.035. As for ATTATGCC, the “PBM E-score of 8-mer” value is -0.245 ± 0.014. For CAGACATG, the “PBM E-score of 8-mer” value turned out to be 0.0447 ± 0.02. On to AGCTACCC, for which the “PBM E-score of 8-mer” value is -0.278 ± 0.0062. On to ACAACCGA, for which the “PBM E-score of 8-mer” value worked out at 0.075 ± 0.073. CGACCGTC: the “PBM E-score of 8-mer” value is -0.0536 ± 0.0096. Under AATTCACT stands 0.0313 ± 0.028; under AGCGCGCG, 0.144 ± 0.038; under ATCCTCAC, 0.346 ± 0.021.

For the sequence ATTGAAGA, the “PBM E-score of 8-mer” value was -0.234 ± 0.1.

As to AAACCTCG, the “PBM E-score of 8-mer” value was 0.0655 ± 0.067. Consider ACAGTCCT, for which the “PBM E-score of 8-mer” value is -0.0387 ± 0.018. AGTGAGAA: the “PBM E-score of 8-mer” value is 0.421 ± 0.025. Next, GCTCGCTA: 0.0199 ± 0.011; AGTACCAT: -0.111 ± 0.026; ATAGGAGG: -0.0128 ± 0.039. In the case of TGGAATAA, the “PBM E-score of 8-mer” value is -0.163 ± 0.0046. TTACCCAA: the “PBM E-score of 8-mer” value was -0.0926 ± 0.082. As for ACCACACT, the “PBM E-score of 8-mer” value is 0.289 ± 0.014.

Regarding CGGTATCC, the “PBM E-score of 8-mer” value is -0.331 ± 0.036. As to CTGAGGGC, the “PBM E-score of 8-mer” value was -0.0851 ± 0.044. For ATAAATAT, the “PBM E-score of 8-mer” value was -0.0523 ± 0.0045. Take GACGAAGA: the “PBM E-score of 8-mer” value came to 0.0626 ± 0.051.

For ATAATTGA, the “PBM E-score of 8-mer” value was -0.00138 ± 0.11.

Turning to CCCTCGCG, the “PBM E-score of 8-mer” value turned out to be 0.163 ± 0.022. With TAGTGCGA, the “PBM E-score of 8-mer” value came to 0.4056 ± 0.0024. With TAGCTTGA, the “PBM E-score of 8-mer” value is -0.284 ± 0.013. Turning to CGTGTAAC, the “PBM E-score of 8-mer” value amounted to 0.071 ± 0.026. Under ATCCCTCC stands -0.141 ± 0.028. Take TCGCACCA: the “PBM E-score of 8-mer” value was 0.44 ± 0.0079. With GAGATTAC, the “PBM E-score of 8-mer” value stood at 0.0825 ± 0.058.

Regarding CGCACGGA, the “PBM E-score of 8-mer” value was -0.0191 ± 0.033. Regarding CTACACCC, the “PBM E-score of 8-mer” value came to 0.139 ± 0.008. CGGTCGCC: the “PBM E-score of 8-mer” value came out at 0.0664 ± 0.09. As to GCGGCCAC, the “PBM E-score of 8-mer” value was -0.195 ± 0.053. In the case of CTAGTTTC, the “PBM E-score of 8-mer” value was 0.00458 ± 0.0045. For the sequence GAACCGCC, the “PBM E-score of 8-mer” value was -0.0726 ± 0.028. In the case of TCCCCGGA, the “PBM E-score of 8-mer” value is -0.21 ± 0.055. Next, CGTTCGCC: 0.0701 ± 0.066; CAGGGGAA: -0.11 ± 0.067. As for CGTAAGGC, the “PBM E-score of 8-mer” value is -0.177 ± 0.092. Regarding ACCTCGGC, the “PBM E-score of 8-mer” value amounted to 0.12 ± 0.035. ACAGTGCC: the “PBM E-score of 8-mer” value stood at 0.0659 ± 0.046. Consider ACTTGTAG, for which the “PBM E-score of 8-mer” value stood at 0.0486 ± 0.077. As for GACTTAGC, the “PBM E-score of 8-mer” value turned out to be 0.133 ± 0.055. On to TCCTCGAA, for which the “PBM E-score of 8-mer” value was -0.0611 ± 0.0042. As for GAAAATTC, the “PBM E-score of 8-mer” value is 0.0206 ± 0.059.

Turning to ATCCGCAC, the “PBM E-score of 8-mer” value amounted to 0.295 ± 0.061. Take AGACGCAT: the “PBM E-score of 8-mer” value was -0.261 ± 0.026. CCATAAAG: the “PBM E-score of 8-mer” value was -0.125 ± 0.03. With ATCTTGCC, the “PBM E-score of 8-mer” value is -0.08073 ± 0.00071. As to CACAATCA, the “PBM E-score of 8-mer” value turned out to be 0.21 ± 0.0085. As for GGATACAC, the “PBM E-score of 8-mer” value was -0.187 ± 0.02.

Take ACTGACTG: the “PBM E-score of 8-mer” value came to 0.0982 ± 0.0061.

For the sequence TAATACTA, the “PBM E-score of 8-mer” value was -0.193 ± 0.0034. With AACGGACA, the “PBM E-score of 8-mer” value turned out to be 0.0752 ± 0.062. ACGGAGCC: the “PBM E-score of 8-mer” value was -0.0846 ± 0.034. As for AGGCGTAC, the “PBM E-score of 8-mer” value was -0.121 ± 0.0064. CCTAATGC: the “PBM E-score of 8-mer” value is -0.00532 ± 0.015.

Turning to CTGATAAC, the “PBM E-score of 8-mer” value is 0.0457 ± 0.0041. ATCTAAAA: the “PBM E-score of 8-mer” value is -0.196 ± 0.0094. Consider CGCACTCC, for which the “PBM E-score of 8-mer” value amounted to 0.224 ± 0.035. Under AATTTTTC stands 0.0134 ± 0.053; under ACCCGAAT, 0.0345 ± 0.059; under AACCGCAA, -0.214 ± 0.063. Under CCAAAGCC stands -0.279 ± 0.059. Consider ACACAGTC, for which the “PBM E-score of 8-mer” value worked out at 0.0668 ± 0.064. On to CCGTCTAG, for which the “PBM E-score of 8-mer” value was -0.123 ± 0.051.

For the origin of these results see the supplement of paper PMC4166925.
